Laboratory results from publication PMC5892938.
The list shows a part of the results. At the low end of the ranking the order means little.

These sequences were tested against GST-SBP-SLBP (stem-loop binding protein) (UniProt Q14493) (assay: targeted RNA Bind-n-Seq). Details: RBNS binding buffer: 25 mM Tris pH 7.5, 150 mM KCl, 3 mM MgCl2, 0.1% Tween, 0.5 mg/mL BSA, 1 mM DTT; 27 nM protein, 750 pM RNA pool; temperature not stated; high values mean tight binding.
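Also: DESeq read counts versus GST-SBP nonspecific binding control pulldown.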

Row | Sequence | binding signal (log2 fold change)
1 | GGUCACGUCUCAAUCAACUCAUUCUCCAGGGAAACCCCUGGCAUACUCAACAGCUCGCAGUCAAG | 0.0228
2 | GGUCACGUCUCAAUCAACUCAGUUUCAGGAGUUUCCUCCUGCAUUUUCAACAGCUCGCAGUCAAG | -0.0527
3 | GGUCACGUCUCAAUCAACUCCACAGAGGGGGGGAAAACCCCUUUGCCCUCCAUUUCAACAGCUCGCAGUCAAG | -0.287
4 | GGUCACGUCUCAAUCAACUCAAUCGAGGGGGGGAAAACCCCUUUACCCUCCAAAUCAACAGCUCGCAGUCAAG | 0.111
5 | GGUCACGUCUCAAUCAACUCUUUCUCAGGAGUUUACUCCUGUUUUUUCAACAGCUCGCAGUCAAG | -0.18
6 | GGUCACGUCUCAAUCAACUCUUUUUCCAGGGAAACCCCUGGCGUUUUCAACAGCUCGCAGUCAAG | -0.255
7 | GGUCACGUCUCAAUCAACUCUUCUCCCAGGGAAAACCCUGGCUAUUUCAACAGCUCGCAGUCAAG | 0.248
8 | GGUCACGUCUCAAUCAACUCAAUUCCCAGGGAAAGCCCUGGUUAACUCAACAGCUCGCAGUCAAG | -0.106
9 | GGUCACGUCUCAAUCAACUCAUCGGCCAGGGAAAUCCCUGGGAAUCUCAACAGCUCGCAGUCAAG | 0.0249
10 | GGUCACGUCUCAAUCAACUCUUCGUCAGGAGUUUUCUCCUGCUUAUUCAACAGCUCGCAGUCAAG | -0.0252
11 | GGUCACGUCUCAAUCAACUCAUCCCCAGGAGUUUCCUCCUGUAAAUUCAACAGCUCGCAGUCAAG | 0.282
12 | GGUCACGUCUCAAUCAACUCUAUCUCAGGAGUUUACUCCUGUUAUUUCAACAGCUCGCAGUCAAG | -0.0792
13 | GGUCACGUCUCAAUCAACUCAUCUCCCAGGGAAAGCCCUGGCUUUCUCAACAGCUCGCAGUCAAG | 0.142
14 | GGUCACGUCUCAAUCAACUCAAUCCCAGGAGUUUUCUCCUGUUAUGUCAACAGCUCGCAGUCAAG | 0.131
15 | GGUCACGUCUCAAUCAACUCUUCCUCAGGAGUUUACUCCUGUUAUGUCAACAGCUCGCAGUCAAG | 0.124
16 | GGUCACGUCUCAAUCAACUCAUCUUCAGGAGUUUCCUCCUGUAAAUUCAACAGCUCGCAGUCAAG | 0.0327
17 | GGUCACGUCUCAAUCAACUCUUCUUCCAGGGAAAACCCUGGCAUACUCAACAGCUCGCAGUCAAG | 0.194
18 | GGUCACGUCUCAAUCAACUCUUUUGCAGGAGUUUACUCCUGGUAUUUCAACAGCUCGCAGUCAAG | 0.177
19 | GGUCACGUCUCAAUCAACUCAUCGUCAGGAGUUUACUCCUGUUUAUUCAACAGCUCGCAGUCAAG | 0.0497

Row | Sequence | binding signal (log2 fold change)
20 | GGUCACGUCUCAAUCAACUCUUCUCCAGGAGUUUACUCCUGUUAUUUCAACAGCUCGCAGUCAAG | 0.116
21 | GGUCACGUCUCAAUCAACUCCAACGAGGGGGGGAAAACCCCUUUGCCCUCAAAUUCAACAGCUCGCAGUCAAG | -0.264
22 | GGUCACGUCUCAAUCAACUCAAGUCCCAGGGAAACCCCUGGCAUAUUCAACAGCUCGCAGUCAAG | -0.146
23 | GGUCACGUCUCAAUCAACUCAUCCUCAGGAGUUUUCUCCUGCAAAUUCAACAGCUCGCAGUCAAG | 0.14
24 | GGUCACGUCUCAAUCAACUCAGUCCCAGGAGUUUACUCCUGCUUUUUCAACAGCUCGCAGUCAAG | -0.0813
25 | GGUCACGUCUCAAUCAACUCCUAAGAGGGGGGGAAAACCCCUUUGCCCUCACCGUCAACAGCUCGCAGUCAAG | 0.325
26 | GGUCACGUCUCAAUCAACUCUACUUCCAGGGAAAUCCCUGGUAAACUCAACAGCUCGCAGUCAAG | 0.283
27 | GGUCACGUCUCAAUCAACUCUUUUCCCAGGGAAACCCCUGGCAAUCUCAACAGCUCGCAGUCAAG | 0.113
28 | GGUCACGUCUCAAUCAACUCAUUUUCCAGGGAAAACCCUGGUUAUUUCAACAGCUCGCAGUCAAG | -0.0884
29 | GGUCACGUCUCAAUCAACUCUUCGUCAGGAGUUUACUCCUGCUUAUUCAACAGCUCGCAGUCAAG | 0.0746
30 | GGUCACGUCUCAAUCAACUCUUCCUCCAGGGAAACCCCUGGCUUUCUCAACAGCUCGCAGUCAAG | -0.0547
31 | GGUCACGUCUCAAUCAACUCAUUUCCAGGAGUUUCCUCCUGUUAUUUCAACAGCUCGCAGUCAAG | -0.146
32 | GGUCACGUCUCAAUCAACUCAAUUCCCAGGGAAAACCCUGGUUUUCUCAACAGCUCGCAGUCAAG | -0.179
33 | GGUCACGUCUCAAUCAACUCAGUCCCAGGAGUUUUCUCCUGUUUAUUCAACAGCUCGCAGUCAAG | 0.0385
34 | GGUCACGUCUCAAUCAACUCCCAAGAGGGGGGGAAAACCCCUUUACCCUCCAACUCAACAGCUCGCAGUCAAG | -0.116
35 | GGUCACGUCUCAAUCAACUCCCAAGAGGGGGGGAAAACCCCUUUGCCCUCGAUAUCAACAGCUCGCAGUCAAG | 0.0882
36 | GGUCACGUCUCAAUCAACUCAUCCCCAGGAGUUUACUCCUGCUAACUCAACAGCUCGCAGUCAAG | 0.154
37 | GGUCACGUCUCAAUCAACUCUACUUCCAGGGAAAGCCCUGGCAAAUUCAACAGCUCGCAGUCAAG | -0.00473
